The supplement of paper PMC3334620
The full ranking holds about 33,000 sequences; the median of “E-score (-0.5 to 0.5)” is about -0.012, and the highest 2% start at about 0.29. Some of the results follow.

Molecular target: T1, Ybr033w (UniProt P38073)
T1 sequence: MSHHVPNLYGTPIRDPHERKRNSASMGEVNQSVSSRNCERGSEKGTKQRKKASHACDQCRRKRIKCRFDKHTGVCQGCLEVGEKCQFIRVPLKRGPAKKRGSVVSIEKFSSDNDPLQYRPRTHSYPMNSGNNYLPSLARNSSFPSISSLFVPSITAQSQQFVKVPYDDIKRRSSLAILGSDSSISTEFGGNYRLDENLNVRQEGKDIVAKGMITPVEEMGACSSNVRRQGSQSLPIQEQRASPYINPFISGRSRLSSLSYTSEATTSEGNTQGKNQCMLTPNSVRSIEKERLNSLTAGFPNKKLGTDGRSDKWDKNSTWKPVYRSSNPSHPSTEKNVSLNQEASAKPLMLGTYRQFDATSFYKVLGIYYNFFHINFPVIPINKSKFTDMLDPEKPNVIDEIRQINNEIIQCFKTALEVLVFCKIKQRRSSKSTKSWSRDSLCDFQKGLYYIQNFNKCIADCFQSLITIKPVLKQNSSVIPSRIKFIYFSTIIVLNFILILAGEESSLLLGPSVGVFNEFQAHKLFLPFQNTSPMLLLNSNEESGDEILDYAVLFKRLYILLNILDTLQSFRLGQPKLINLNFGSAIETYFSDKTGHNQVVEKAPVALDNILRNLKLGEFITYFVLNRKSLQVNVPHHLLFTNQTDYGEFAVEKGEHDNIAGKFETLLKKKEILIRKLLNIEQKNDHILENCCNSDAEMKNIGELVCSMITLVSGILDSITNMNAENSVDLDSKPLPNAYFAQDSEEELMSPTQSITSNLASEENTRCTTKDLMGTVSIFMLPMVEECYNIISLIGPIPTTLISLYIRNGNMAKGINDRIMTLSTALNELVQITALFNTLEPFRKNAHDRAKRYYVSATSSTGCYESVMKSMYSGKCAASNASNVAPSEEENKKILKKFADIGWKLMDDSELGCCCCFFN
Experiment: PBM E-score (8-mer binding enrichment) (E-score (-0.5 to 0.5)); higher = stronger / more preferred TF binding; most listed sequences are background and not binding sites
Settings: protein concentration: 200 nM; construct: GST-full length
Protocol: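 Universal 'all 10-mer' protein binding microarrays (Agilent AMADID 015681) probed with GST-tagged S. cerevisiae TFs (full-length or DBD) made by in vitro transcription/translation (PURExpress), about 100-200 nM. Bound TF was detected with fluorescent anti-GST. Each ungapped 8-mer (which stands for itself and its reverse complement) is scored by the PBM enrichment score (E-score), a modified Wilcoxon-Mann-Whitney statistic from -0.5 to +0.5, computed with the Universal PBM Analysis Suite. Scale: above 0.35 generally sequence-specific binding.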

| Sequence | PBM E-score |
| --- | --- |
| ACCTCGAT | 0.105 |
| CTTTATGA | 0.0552 |
| GAGAGTCC | -0.228 |
| AAAAGCGG | -0.0853 |
| CCGCGAAG | -0.02 |
| AATTGTAG | 0.201 |
| CGACGCCA | -0.218 |
| AGTGTCCA | 0.051 |
| AGATCACG | 0.105 |
| GACAGTTA | 0.0195 |
| AGAACTGC | -0.133 |
| TCCGCGAA | 0.0702 |
| ATCACGAA | 0.106 |
| TCACTAAA | 0.164 |
| CGACTAAA | -0.121 |
| AGCACAGG | -0.111 |
| AAATAAAG | 0.281 |
| CCAGGTGC | -0.087 |
| AGGTCCCA | -0.162 |
| AGTAGGTC | -0.2 |
| CGGGGGAA | -0.164 |
| AGTAGGAA | -0.0615 |
| CAGGTCCG | -0.187 |
| ACCTAGAC | -0.178 |
| CCGGTCCA | -0.223 |

| Sequence | PBM E-score |
| --- | --- |
| AGCTTAGG | 0.0442 |
| CTAGTTCC | 0.0314 |
| CTCCAAAC | 0.134 |
| CTCACCTA | 0.0284 |
| CACGTTTA | 0.0437 |
| GTGAACCA | 0.207 |
| TACTCCTA | 0.00987 |
| GGTGTGCA | -0.25 |
| ACGTACAT | 0.182 |
| ATTGGTGG | 0.113 |
| GTCATAGA | 0.0405 |
| CCGTGAAG | -0.202 |
| CTTTCTGC | -0.171 |
| GTTCTTAA | 0.0938 |
| CATCGGTA | -0.154 |
| CTTAATCC | 0.152 |
| GGGGTGAA | -0.00867 |
| GCAGTCCC | -0.254 |
| AGGACCCA | -0.303 |
| GGCTACGA | -0.241 |
| ACGCAGTC | -0.266 |
| AATTGGAC | 0.16 |
| CCATGCGC | -0.215 |
| AATGTACA | 0.0635 |
| CCTAGTAA | -0.0427 |

| Sequence | PBM E-score |
| --- | --- |
| CATCATCC | 0.0323 |
| GGTGCACC | -0.253 |
| CAGAATCA | 0.0839 |
| AACTATAG | 0.104 |
| CTCGACCA | -0.162 |
| GCCGAATA | 0.0333 |
| GCACTTAA | 0.016 |
| AAACGGAT | 0.188 |
| ACCTGACT | 0.194 |
| CTTTCAAA | 0.212 |
| CCGTCTAC | 0.0942 |
| ATTGCTCG | 0.132 |
| CCGAGGCA | -0.128 |
| CACGCCTC | -0.209 |
| GAACTCGA | 0.00673 |
| AGAAAAGA | 0.114 |
| CACCAATG | 0.0245 |
| AGAGTCGG | -0.126 |
| TCTACGCA | -0.0005 |
| GGATGTGA | -0.0116 |
| GCAACCGA | 0.0135 |
| AAAAATCT | 0.267 |
| TCTAAGCA | -0.00029 |
| AATAGTGG | 0.0387 |
| GGAATTCC | -0.236 |

| Sequence | PBM E-score |
| --- | --- |
| GAACCCGC | -0.242 |
| AACGAGGA | -0.0379 |
| CGGTCGGC | -0.299 |
| AGAGTTAA | 0.0474 |
| AACTTGCC | 0.0985 |
| AACCCGTG | -0.329 |
| CGAAGTTC | 0.0291 |
| ATAACCAA | 0.195 |
| CAAAATCC | 0.109 |
| AAGTCACG | -0.107 |
| ATAATCCC | 0.189 |
| AGCCACAA | 0.0758 |
| CCGATGGA | -0.136 |
| GAAGACAC | -0.172 |
| CGTTTAAA | 0.135 |
| AATGCACG | 0.0215 |
| AGTTTAGC | -0.121 |
| CAGTTTAC | 0.0171 |
| GACCTCGC | -0.156 |
| AATAGCAA | 0.147 |
| ATTTCGAG | 0.244 |
| ATACGGAG | 0.00026 |
| CGTAGTAG | 0.106 |
| GCTTCTTA | 0.141 |
| CGTAGCGC | -0.0964 |

| Sequence | PBM E-score |
| --- | --- |
| GAATCGCA | -0.0364 |
| ATGCGTTA | -0.00863 |
| ATTGGTAG | 0.205 |
| ATCCCGAC | 0.0724 |
| AAAAGCAA | 0.22 |
| GGTAAGTA | 0.0633 |
| GCCGTAGA | 0.0238 |
| ACCGATAC | 0.0669 |
| ACAAGACA | 0.162 |
| AGGGGCAG | -0.302 |
| AGAATTAG | 0.187 |
| GTTTGTCA | 0.0261 |
| ATGCCTAC | -0.0813 |
| CCTGACTA | 0.0513 |
| TGAAGCAA | -0.108 |
| ATAATCTC | 0.293 |
| GGTCTTTA | 0.0871 |
| ATGCGAAC | 0.0408 |
| ATCGTTAG | 0.147 |
| AATCGAGA | 0.0977 |
| CATTTACG | 0.0866 |
| CCGCGCTC | -0.164 |
| AACCTGCT | -0.0354 |
| CCATCACG | -0.0178 |
| AGACTTGG | -0.0522 |

| Sequence | PBM E-score |
| --- | --- |
| ACACGACC | -0.177 |
| GTAGTGCA | 0.114 |
| CTGTCAAC | -0.0711 |
| GAACTGTA | 0.193 |
| CTGCTCAC | -0.143 |
| CAAATAGG | 0.00709 |
| GGCATCAA | -0.0874 |
| ACCTGCGA | -0.113 |
| AACTAACT | 0.126 |
| ATAGTTCC | 0.25 |
| CCGGCCTC | -0.306 |
| CATCTCGA | -0.0245 |
| GCCGGTAA | 0.0064 |
| TCAAAAGA | 0.167 |
| CAAATTCG | 0.164 |
| GCAGAACC | -0.252 |
| AGGAAACA | 0.172 |
| ACCAACGC | -0.264 |
| AGGATAAA | 0.427 |
| AATTCGCG | 0.0683 |
| ATTGTTAG | 0.0815 |
| GTATTCTA | 0.207 |
| CTGATGGC | -0.163 |
| TAGCTCGA | 0.0406 |
| AATTTGTA | 0.206 |

| Sequence | PBM E-score |
| --- | --- |
| CCTTCTGC | -0.175 |
| GACGACCA | -0.124 |
| AATCAGCA | 0.17 |
| ACAACATA | 0.0981 |
| CTCTAAGA | 0.0486 |
| GACTCAAA | 0.00131 |
| CCTGCCCC | -0.282 |
| CCACTTAG | -0.154 |
| AACGCTCA | -0.0631 |
| CTATTATC | 0.21 |
| CAAACACC | 0.0219 |
| ATTCCGGC | 0.0756 |
| CAATCTGC | -0.19 |
| GATGAGTA | 0.206 |
| CAGCGTCC | -0.145 |
| GAATCTTA | 0.196 |
| ATAAGTGC | -0.0719 |
| CAAAACCA | 0.245 |
| GTCTCAAA | -0.144 |
| AAAACCTG | -0.00791 |
| GATTCACA | 0.0232 |
| GTAGGGAA | 0.118 |
